# Assay results taken from PubChem BioAssay AID686978 (National Center for Advancing Translational Sciences (NCATS), 2013).
# Values joined by “and” are separate entries in the source; they are usually repeats but may differ in a detail not shown here. Equal values may be shown once. Among all 420,000 compounds or so, about 64,000 (15%) were called active. Inconclusive results, whose numbers are uncertain, are shown with a selection of clear calls. The call rests on the fitted dose curve; in most records, active means well fitted inhibition curve with a large enough effect; inconclusive means small, poorly fitted or top-dose-only effect; inactive means flat fitted curve, though single readings scatter. No potency is given beside an inconclusive call; the fits are too rough. A structure can be active in one record and inactive in another.
# Assay: qHTS for Inhibitors of human tyrosyl-DNA phosphodiesterase 1 (TDP1): qHTS in cells in absence of CPT; further: nearly all actives have a fitted effect of over 55% in size
# Conditions: DT40 Tdp1-/- hTDP1 cells, no CPT, ATP luminescence, 48 h; series mostly up to 46.2 µM
# Outline: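 Camptothecin absent (DMSO only). Human TDP1-complemented DT40 knockout cells, 400 cells/well, 37 °C for minimum 48 hr; ATP measured via CellTiter-Glo, 30 min dark incubation, luminescence.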
# Potency means the concentration at half of the fitted maximal effect; tags describe the fitted curve by direction and shape.
row,Structure (SMILES),Potency
1,CC(C)(C)C(=O)CSc1n[nH]c(-c2ccccc2)n1,"inconclusive [inhibitor, single point]"
2,N=c1c(S(=O)(=O)c2ccc(Cl)cc2)cc2c(=O)n3ccccc3nc2n1CC1CCCO1 (configuration not stated),inactive
3,NC(=O)c1ccccc1OCC(=O)N1CCc2ccccc2C1,active: 13 µM
4,COc1cc(Br)cc(C=Nc2cccc(C(F)(F)F)c2)c1O,"inconclusive [inhibitor, single point]"
5,C=C(C)CSc1nc2ccccc2c(=O)n1-c1c(C)n(C)n(-c2ccccc2)c1=O,"inconclusive [inhibitor, single point]"
6,COc1ccc(CCNC(=O)c2oc3ccccc3c2C)cc1,"inconclusive [inhibitor, single point]"
7,CNC(=O)[C@H]1O[C@@H](n2cnc3c(NCc4cccc(I)c4)nc(Cl)nc32)[C@H](O)[C@@H]1O,inactive and active: 20.6 µM
8,CSc1ccc(CN2CCC(C)(Oc3ccc(F)cc3)C2)cc1 (configuration not stated),"inconclusive [inhibitor, single point]"
9,CC(=O)c1cccc(NC(=O)C2=CC(c3cccs3)=NS(=O)(=O)N2C)c1,"inconclusive [inhibitor, single point]"
10,CCSc1nnc(NC(=O)CSc2nncc(=O)n2N)s1,"inconclusive [inhibitor, single point]"
11,CCCC(=O)NC(C)c1nc(-c2ccc(C)cc2)no1 (configuration not stated),"inconclusive [inhibitor, partial curve]"
12,COc1cccc(CNC(=O)CCCn2c(=O)c3cccn3c3ccc(F)cc32)c1OC,active: 8.2 µM
13,CCOC(=O)c1[nH]c(CSc2nnnn2-c2ccccc2C)c(C(=O)OCC)c1C,"inconclusive [inhibitor, partial curve]"
14,CCOC(=O)C1CCN(C2=C(NS(=O)(=O)c3ccc(Cl)cc3)C(=O)c3ccccc3C2=O)CC1,"inconclusive [inhibitor, single point]"
15,Cc1c(C(=O)NCc2ccc([N+](=O)[O-])cc2)sc(=O)n1Cc1ccc(-c2ccccc2)cc1,"inconclusive [inhibitor, single point]"
16,O=S(=O)(c1cccc2ccccc12)N1CCC2CC1c1cc(-c3ccc4c(c3)OCO4)ccc12 (configuration not stated),"inconclusive [inhibitor, single point]"
17,C[C@@H]1CN([C@H](C)CO)C(=O)CCCn2nncc2CO[C@@H]1CN(C)C(=O)c1cc(-c2ccccc2)on1,"inconclusive [inhibitor, partial curve]"
